Test results reported in patent publication US7632826B2, “Use of agonists of the glucocorticosteroid and/or mineralo-corticosteroid receptors, in particular corticosteroids for the treatment of addiction” (Curamentis Ltd., priority 1998, dated 2009).

Test system: opiate-addicted rats

SMILES: C[C@]12C[C@H](O)[C@H]3[C@@H](CCC4=CC(=O)CC[C@@]43C)[C@@H]1CC[C@@H]2C(=O)CO [treatment (B), corticosterone]
- ETZ intake under denaturation conditions in the follow-up re-tests (previously addicted rats after treatment, opiate solutions denatured with quinine hydrochloride 0.1 g/l, mean +/- SEM): 100.1 ± 6.3 µg/kg/day
- Effect of treatment on addiction (in words) (previously addicted rats, follow-up re-tests): did not show any effect
